Experimental data from publication PMC12589908.
Results are given in words; binding and its absence hold for the method and conditions named. Binding seen in cells or lysates may run through a third protein. Some entries that bind do so weakly or less than the wild type.

By UniProt entry, the sequences of proteins in these tests, tags left out. Where a name states a change or a piece, a line headed by the entry shows the natural chain unless it says otherwise. Chains listed by the source or under a name are the forms on record and can include a tag or linker.
UniProt P02795: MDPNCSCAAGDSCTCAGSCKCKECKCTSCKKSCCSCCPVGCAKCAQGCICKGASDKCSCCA
UniProt P14618: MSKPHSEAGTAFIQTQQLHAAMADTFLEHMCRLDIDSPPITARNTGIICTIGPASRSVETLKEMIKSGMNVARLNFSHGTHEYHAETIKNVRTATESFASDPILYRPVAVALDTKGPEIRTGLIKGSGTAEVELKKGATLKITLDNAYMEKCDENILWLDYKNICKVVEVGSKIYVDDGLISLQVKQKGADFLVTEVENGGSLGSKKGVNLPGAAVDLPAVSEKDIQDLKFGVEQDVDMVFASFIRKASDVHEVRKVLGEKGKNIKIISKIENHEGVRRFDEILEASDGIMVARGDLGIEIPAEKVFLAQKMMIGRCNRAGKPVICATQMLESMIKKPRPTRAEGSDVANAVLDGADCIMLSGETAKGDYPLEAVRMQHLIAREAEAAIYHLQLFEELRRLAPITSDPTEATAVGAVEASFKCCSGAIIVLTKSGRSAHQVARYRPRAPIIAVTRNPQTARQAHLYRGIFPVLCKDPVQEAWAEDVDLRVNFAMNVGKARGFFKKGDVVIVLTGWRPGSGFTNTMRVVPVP
PKM1 (P14618-2, form named): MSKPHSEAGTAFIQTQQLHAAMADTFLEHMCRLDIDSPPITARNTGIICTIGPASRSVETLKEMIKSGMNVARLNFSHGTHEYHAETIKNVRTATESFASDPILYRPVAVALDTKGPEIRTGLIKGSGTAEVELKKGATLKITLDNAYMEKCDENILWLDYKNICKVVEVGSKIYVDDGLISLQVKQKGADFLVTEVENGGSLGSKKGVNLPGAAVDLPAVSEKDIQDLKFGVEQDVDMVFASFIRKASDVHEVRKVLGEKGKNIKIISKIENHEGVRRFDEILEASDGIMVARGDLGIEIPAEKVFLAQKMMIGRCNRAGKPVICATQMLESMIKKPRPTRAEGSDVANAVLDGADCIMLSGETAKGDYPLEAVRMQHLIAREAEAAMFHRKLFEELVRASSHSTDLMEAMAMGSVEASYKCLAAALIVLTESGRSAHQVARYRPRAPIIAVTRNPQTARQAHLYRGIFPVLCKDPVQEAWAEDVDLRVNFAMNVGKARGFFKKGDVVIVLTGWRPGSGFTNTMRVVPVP
PKL (P30613-2, form named): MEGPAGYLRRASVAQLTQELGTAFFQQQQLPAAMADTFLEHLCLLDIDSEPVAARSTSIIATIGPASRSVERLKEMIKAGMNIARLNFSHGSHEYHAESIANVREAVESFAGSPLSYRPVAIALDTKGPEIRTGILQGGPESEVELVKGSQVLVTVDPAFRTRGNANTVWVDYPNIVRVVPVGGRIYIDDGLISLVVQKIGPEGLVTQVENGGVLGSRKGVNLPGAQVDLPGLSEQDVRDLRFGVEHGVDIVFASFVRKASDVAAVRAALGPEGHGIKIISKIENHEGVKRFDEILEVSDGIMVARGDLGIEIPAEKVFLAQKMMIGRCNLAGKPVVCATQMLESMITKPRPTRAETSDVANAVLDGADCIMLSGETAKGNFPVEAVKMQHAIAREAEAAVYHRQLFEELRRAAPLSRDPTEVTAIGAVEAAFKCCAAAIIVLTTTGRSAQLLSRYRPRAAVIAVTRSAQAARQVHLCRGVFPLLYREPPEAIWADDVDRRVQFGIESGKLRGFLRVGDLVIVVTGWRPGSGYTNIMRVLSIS

Key:
[1] = target: HA-MT2A (metallothionein-2A), stably expressed in T47D (UniProt P02795); test: co-IP; T47D cells stably expressing HA-MT2; hypoxia (1% O2 for 24 h) or normoxia; EBC lysis buffer, washes with NETN buffer, immunoblot
[2] = target: HA-MT2A (metallothionein-2A) (UniProt P02795); test: co-IP; 293T cells transiently transfected with HA-MT2A (or point mutants) and PKM2-Flag (or point mutants); hypoxia (1% O2 for 24 h) or normoxia; EBC lysis buffer, washes with NETN buffer, immunoblot

Row | Substance | binding [1] | binding [2]
1 | PKM2-Flag (pyruvate kinase M2) (from UniProt P14618 1-531) (enzyme) | – | binds
2 | PKM2-K422R-FLAG (from UniProt P14618 1-531) (enzyme) | – | binds

Results, then the substance that gave them:

Row | binding [1] | binding [2] | Substance
3 | no binding | – | PKL (from UniProt P30613-2 1-543) (enzyme)
4 | no binding | – | PKM1 (from UniProt P14618-2 1-531) (enzyme)
5 | binds | – | Pyruvate kinase M2 (PKM2) of T47D cells (from UniProt P14618 1-531) (enzyme)
